# Test results reported in the supplement of paper PMC8728848.
# Some of the results follow.
# B1: AAL (Aleuria aurantia), P18891 (protein)
# chain: PTEFLYTSKIAAISWAATGGRQQRVYFQDLNGKIREAQRGGDNPWTGGSSQNVIGEAKLFSPLAAVTWKSAQGIQIRVYCVNKDNILSEFVYDGSKWITGQLGSVGVKVGSNSKLAALQWGGSESAPPNIRVYYQKSNGSGSSIHEYVWSGKWTAGASFGSTVPGTGIGATAIGPGRLRIYYQATDNKIREHCWDSNSWYVGGFSASASAGVSIAAISWGSTPNIRVYWQKGREELYEAAYGGSWNTPGQIKDASRPTPSLPDTFIAANSSGNIDISVFFQASGVSLQQWQWISGKGWSIGAVVPTGTPAGW
# Assays:
# Assay in all cases: glycan array binding signal (z-score within array); higher = stronger binding
# Conditions in all cases: glycan notation: IUPAC condensed, linker removed
# Gal6S(b1-3)GlcNAc = target: Gal6S(b1-3)GlcNAc
# Outline: (§1)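 Glycan array data came from 3228 arrays in the Consortium for Functional Glycomics database, and only arrays with an available protein sequence were kept. Glycan names were put into IUPAC-condensed notation, and columns mapping to the same glycan were averaged. The binding signal is a within-array Z-score, averaged across arrays of one protein sequence run at different concentrations or buffers and across linkers. A negative Z-score can be read as non-binding.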
# Gal6S(b1-3)GlcNAc6S = target: Gal6S(b1-3)GlcNAc6S
# Outline: as §1
# Gal6S(b1-4)Glc = target: Gal6S(b1-4)Glc
# Outline: as §1
# Gal6S(b1-4)Glc6S = target: Gal6S(b1-4)Glc6S
# Outline: as §1
# Gal6S(b1-4)GlcNAc = target: Gal6S(b1-4)GlcNAc
# Outline: as §1
# Gal6S(b1-4)GlcNAc6S = target: Gal6S(b1-4)GlcNAc6S
# Outline: as §1
# GalNAc(a1-3)Gal = target: GalNAc(a1-3)Gal
# Outline: as §1
# GalNAc(a1-3)GalNAc = target: GalNAc(a1-3)GalNAc
# Outline: as §1
# [1] = target: GalNAc(a1-3)GalNAc(a1-3)Gal(a1-4)Gal(b1-4)GlcNAc
# Outline: as §1
# [2] = target: GalNAc(a1-3)GalNAc(b1-3)Gal(a1-4)Gal(b1-4)Glc
# Outline: as §1
# GalNAc(b1-3)Gal = target: GalNAc(b1-3)Gal
# Outline: as §1
# [3] = target: GalNAc(b1-3)Gal(a1-4)Gal(b1-4)GlcNAc
# Outline: as §1
# [4] = target: GalNAc(b1-3)Gal(a1-4)Gal(b1-4)GlcNAc(b1-3)Gal(b1-4)Glc
# Outline: as §1
# [5] = target: GalNAc(b1-3)Gal(a1-6)Gal(b1-4)Glc
# Outline: as §1
# GalNAc(b1-3)GalNAc = target: GalNAc(b1-3)GalNAc
# Outline: as §1
# GalNAc(b1-4)GlcNAc = target: GalNAc(b1-4)GlcNAc
# Outline: as §1
# [6] = target: GalNAc(b1-4)GlcNAc(b1-2)Man(a1-3)[GalNAc(b1-4)GlcNAc(b1-2)Man(a1-6)]Man(b1-4)GlcNAc(b1-4)GlcNAc
# Outline: as §1
# GalNAc(b1-6)GalNAc = target: GalNAc(b1-6)GalNAc
# Outline: as §1
# Glc(a1-4)Glc = target: Glc(a1-4)Glc
# Outline: as §1
# Glc(a1-6)Glc(a1-6)Glc = target: Glc(a1-6)Glc(a1-6)Glc
# Outline: as §1
# Glc(b1-4)Glc = target: Glc(b1-4)Glc
# Outline: as §1
# Glc(b1-6)Glc = target: Glc(b1-6)Glc
# Outline: as §1
# GlcA(b1-3)Gal = target: GlcA(b1-3)Gal
# Outline: as §1
# GlcA(b1-3)GlcNAc = target: GlcA(b1-3)GlcNAc
# Outline: as §1
# GlcA(b1-6)Gal = target: GlcA(b1-6)Gal
# Outline: as §1
# [7] = target: GlcNAc(a1-3)Gal(b1-4)GlcNAc
# Outline: as §1
# [8] = target: GlcNAc(a1-4)Gal(b1-3)GlcNAc
# Outline: as §1
# [9] = target: GlcNAc(a1-4)Gal(b1-4)GalNAc
# Outline: as §1
# [10] = target: GlcNAc(a1-4)Gal(b1-4)GlcNAc
# Outline: as §1
# [11] = target: GlcNAc(a1-4)Gal(b1-4)GlcNAc(b1-3)Gal(b1-4)Glc
# Outline: as §1
# [12] = target: GlcNAc(a1-4)Gal(b1-4)GlcNAc(b1-3)Gal(b1-4)GlcNAc
# Outline: as §1
# [13] = target: GlcNAc(a1-4)Gal(b1-4)GlcNAc(b1-3)Gal(b1-4)GlcNAc(b1-3)Gal(b1-4)GlcNAc
# Outline: as §1
# [14] = target: GlcNAc(a1-4)Gal(b1-4)GlcNAc(b1-3)Gal(b1-4)[Fuc(a1-3)]GlcNAc(b1-3)Gal(b1-4)[Fuc(a1-3)]GlcNAc
# Outline: as §1
# [15] = target: GlcNAc(a1-6)Gal(b1-4)GlcNAc
# Outline: as §1
# [16] = target: GlcNAc(b1-2)Gal(b1-3)GalNAc
# Outline: as §1
# [17] = target: GlcNAc(b1-2)Gal(b1-3)GlcNAc
# Outline: as §1
# [18] = target: GlcNAc(b1-2)Man(a1-3)[GlcNAc(b1-2)Man(a1-6)]Man(b1-4)GlcNAc(b1-4)GlcNAc
# Outline: as §1
# [19] = target: GlcNAc(b1-2)Man(a1-3)[GlcNAc(b1-2)Man(a1-6)]Man(b1-4)GlcNAc(b1-4)[Fuc(a1-6)]GlcNAc
# Outline: as §1
binder,measurement,setting,value
B1,glycan array binding signal (z-score),Gal6S(b1-3)GlcNAc,-0.438
same,glycan array binding signal (z-score),Gal6S(b1-3)GlcNAc6S,-0.428
same,glycan array binding signal (z-score),Gal6S(b1-4)Glc,-0.528
same,glycan array binding signal (z-score),Gal6S(b1-4)Glc6S,-0.49
same,glycan array binding signal (z-score),Gal6S(b1-4)GlcNAc,-0.506
same,glycan array binding signal (z-score),Gal6S(b1-4)GlcNAc6S,-0.425
same,glycan array binding signal (z-score),GalNAc(a1-3)Gal,-0.498
same,glycan array binding signal (z-score),GalNAc(a1-3)GalNAc,-0.512
same,glycan array binding signal (z-score),[1],-0.426
same,glycan array binding signal (z-score),[2],-0.411
same,glycan array binding signal (z-score),GalNAc(b1-3)Gal,-0.426
same,glycan array binding signal (z-score),[3],-0.519
same,glycan array binding signal (z-score),[4],-0.436
same,glycan array binding signal (z-score),[5],-0.441
same,glycan array binding signal (z-score),GalNAc(b1-3)GalNAc,-0.472
same,glycan array binding signal (z-score),GalNAc(b1-4)GlcNAc,-0.511
same,glycan array binding signal (z-score),[6],-0.426
same,glycan array binding signal (z-score),GalNAc(b1-6)GalNAc,-0.442
same,glycan array binding signal (z-score),Glc(a1-4)Glc,-0.507
same,glycan array binding signal (z-score),Glc(a1-6)Glc(a1-6)Glc,-0.512
same,glycan array binding signal (z-score),Glc(b1-4)Glc,-0.525
same,glycan array binding signal (z-score),Glc(b1-6)Glc,-0.519
same,glycan array binding signal (z-score),GlcA(b1-3)Gal,-0.495
same,glycan array binding signal (z-score),GlcA(b1-3)GlcNAc,-0.373
same,glycan array binding signal (z-score),GlcA(b1-6)Gal,-0.526
same,glycan array binding signal (z-score),[7],-0.512
same,glycan array binding signal (z-score),[8],-0.441
same,glycan array binding signal (z-score),[9],-0.432
same,glycan array binding signal (z-score),[10],-0.437
same,glycan array binding signal (z-score),[11],-0.433
same,glycan array binding signal (z-score),[12],-0.324
same,glycan array binding signal (z-score),[13],-0.435
same,glycan array binding signal (z-score),[14],1.64
same,glycan array binding signal (z-score),[15],-0.509
same,glycan array binding signal (z-score),[16],-0.486
same,glycan array binding signal (z-score),[17],-0.62
same,glycan array binding signal (z-score),[18],-0.477
same,glycan array binding signal (z-score),[19],0.427
